Our source for the activity change, negative = inhibition values is PubChem BioAssay AID1745853 (National Center for Advancing Translational Sciences (NCATS), 2022).

“And” between values parts separate entries of the source, which are not always exact repeats. Equal entries are not always repeated. Some of the results follow. The main result of the screen is listed elsewhere. These columns were measured beside it and carry no call.

What all share (test): Primary Screen for Target Class Profiling of Small Molecule Inhibitors of Methyltransferases
Assay [1] concerns the target Glycine N-methyltransferase (Homo sapiens) (UniProt Q14749). Particulars: purified enzyme, MTase-Glo SAH luminescence; measured here: GNMT inhibition; at 40 µM; stronger effect = lower value. An outline of the steps:
(§1)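 Each enzyme was reacted with SAM and its substrate, with compounds tested once at 40 uM; SAH formed was read by MTase-Glo luminescence.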

The target in assay [2] is Guanidinoacetate N-methyltransferase (Homo sapiens) (UniProt Q14353). Particulars: purified enzyme, MTase-Glo SAH luminescence; measured here: GAMT inhibition; at 40 µM; stronger effect = lower value. In short, it runs like this: as §1
The target in assay [3] is Histamine N-methyltransferase (Homo sapiens) (UniProt P50135). Particulars: purified enzyme, MTase-Glo SAH luminescence; measured here: HNMT inhibition; at 40 µM; stronger effect = lower value. In short, it runs like this: as §1
In assay [4] the target is Nicotinamide N-methyltransferase (Homo sapiens) (UniProt P40261). Conditions: purified enzyme, MTase-Glo SAH luminescence; measured here: NNMT inhibition; at 40 µM; stronger effect = lower value. An outline of the steps:
as §1

For assay [5], the target named is Phenylethanolamine N-methyltransferase (Homo sapiens) (UniProt P11086). Particulars: purified enzyme, MTase-Glo SAH luminescence; measured here: PNMT inhibition; at 40 µM; stronger effect = lower value. An outline of the steps: as §1
% is scaled to controls: 0 for no effect and ±100 for the full control effect.

As to `COc1ccccc1NC(=O)N1Cc2ccccc2-n2cccc2C1c1cccs1` (stereo not given), the activity change, negative = inhibition in assay [1] was found to be 5.57%; in assay [2] it was 0%; in assay [3], 3.73%; in assay [4] it was 1.18%; in assay [5] it was 4.64%.

Consider `CCOc1ccccc1NC(=O)N1Cc2ccccc2-n2cccc2C1c1ccccc1C` (stereo not given), for which the activity change, negative = inhibition came out at 9.27% in assay [1]; 4.43% in assay [2]; 3.96% in assay [3]; 2.99% in assay [4]; 4.31% in assay [5].

Consider `O=C(O)COCC(=O)N1C[C@@H]2C[C@H](C1)c1ccc(-c3cc4ccccc4s3)c(=O)n1C2`, for which the activity change, negative = inhibition in assay [1] was -4.69%; in assay [2], -10.4%; in assay [3], -3.62%; in assay [4] it was -15.1%; in assay [5] it was 6.72%.

For `C[C@@H]1CCC2[C@@H](C)C(=O)OC3O[C@@]4(C)CCC1[C@]32OO4` (stereo not given in full), the activity change, negative = inhibition in assay [1] is -3.75%; in assay [3] it was 1.81%.

On to `COCCCNC(=O)N1Cc2ccccc2-n2cccc2C1c1ccccc1Cl` (stereo not given), for which the activity change, negative = inhibition is -0.015% in assay [1]; 2.61% in assay [2]; -1% in assay [3]; -8.17% in assay [4]; -1.53% in assay [5].

Consider `CCCNC(=O)N1Cc2ccccc2-n2cccc2C1c1ccc(OC)c(OC)c1` (stereo not given), for which the activity change, negative = inhibition in assay [1] was 4.22%; in assay [2] it was 0%; in assay [3], -4.64%; in assay [4], -1.58%; in assay [5] it was 3.17%.

On to `O=C([C@H]1CN2CCC1C[C@@H]2Cn1cc(CCO)nn1)N1CCOCC1` (stereo not given in full), for which the activity change, negative = inhibition was 0.12% in assay [1]; 1.4% in assay [2]; 0.845% in assay [3]; 0.907% in assay [4]; 5.96% in assay [5].

For `O=C1NC(=O)c2c1c1c3ccccc3n3c1c1c2c2ccccc2n1C1CCC3O1`, the activity change, negative = inhibition is -33.1% in assay [2], -39.3% in assay [4] and -12.3% in assay [5].

For `CCCCCn1cc(C(=O)c2cccc3ccccc23)c2ccccc21`, the activity change, negative = inhibition is 5.29% in assay [1]; -16.4% in assay [2]; 10.8% in assay [3]; -22.4% in assay [4]; -6.7% in assay [5].

On to `CCOc1ccccc1NC(=O)N1Cc2ccccc2-n2cccc2C1c1ccc(Cl)cc1` (stereo not given), for which the activity change, negative = inhibition in assay [1] was -2.61%; in assay [2], 0.924%; in assay [3] it was 1.58%; in assay [4], -3.01%; in assay [5], 0.694%.

On to `COC(=O)c1cccc(NC(=O)N2Cc3ccccc3-n3cccc3C2c2ccc(Cl)cc2)c1` (stereo not given), for which the activity change, negative = inhibition is -2.56% in assay [1]; 3.86% in assay [2]; -1.92% in assay [3]; -2.8% in assay [4]; 0.297% in assay [5].

On to `CCOc1ccc(NC(=O)N2Cc3ccccc3-n3cccc3C2c2cccc(C)c2)cc1` (stereo not given), for which the activity change, negative = inhibition in assay [1] came out at 8.34%; in assay [2], 0.244%; in assay [3] it was 7.35%; in assay [4], 5.82%; in assay [5], 4.85%.

Turning to `CC(C)N(CCC(C(N)=O)(c1ccccc1)c1ccccn1)C(C)C` (stereo not given), the activity change, negative = inhibition in assay [1] is 2.79% and -0.232% and 4.29%; in assay [2] it was 7.99% and -0.093% and -6.72%; in assay [3], -19.9% and 0.134% and -18.8%; in assay [4] it was -5.53% and -10.6% and -10.1%; in assay [5], -3.86% and -2.45% and -4.2%.

Take `C/C=C(/C)C(=O)O[C@H]1[C@@H]2[C@H](C)C(=O)O[C@@H]2C[C@@H](C)[C@@H]2C=CC(=O)[C@]21C`: the activity change, negative = inhibition is -0.249% in assay [1]; 4.86% in assay [2]; 7.3% in assay [3]; -7.59% in assay [4]; 4.94% in assay [5].

Consider `CC(=O)N1[C@H]2CC[C@@H]1c1cnc(-c3ccc(F)cc3)nc1C2`, for which the activity change, negative = inhibition in assay [1] is -7.17%; in assay [2], -14.4%; in assay [3], -5.82%; in assay [4], -19.8%; in assay [5] it was -10.6%.

As to `O=[N+]([O-])/C=C/c1ccc2c(c1)OCO2`, the activity change, negative = inhibition in assay [1] is -15%; in assay [2], 13%; in assay [3] it was 2.34%; in assay [4], -5.86%; in assay [5], 9.16%.

Turning to `COc1ccccc1NC(=O)N1Cc2ccccc2-n2cccc2C1C` (stereo not given), the activity change, negative = inhibition in assay [1] was -0.696%; in assay [2], 0%; in assay [3], 9.59%; in assay [4] it was 1.26%; in assay [5], 5.75%.

As to `Cc1ccccc1-c1ccc2n(c1=O)C[C@H]1C[C@@H]2CN(C(=O)NC2CCCCC2)C1`, the activity change, negative = inhibition was -5.42% in assay [1]; -14.4% in assay [2]; -5.59% in assay [3]; -14.8% in assay [4]; -12.1% in assay [5].

Consider `CSc1ccc(C2c3cccn3-c3ccccc3CN2C(=O)NCc2ccccc2)cc1` (stereo not given), for which the activity change, negative = inhibition in assay [1] was 0.96%; in assay [2], 0%; in assay [3], 1.12%; in assay [4] it was 1.71%; in assay [5], 5.23%.

Turning to `CC1=CC2/C=C(\C)CCCC(O)/C=C/C(=O)OC23C(=O)NC(CC(C)C)C3C1C` (stereo not given), the activity change, negative = inhibition in assay [1] is 4.38%; in assay [2], 3.25%; in assay [3], 12.1%; in assay [4], -5.85%; in assay [5], 3.76%.

On to `CSc1ccc(C2c3cccn3-c3ccccc3CN2C(=O)Nc2ccc(C)cc2C)cc1` (stereo not given), for which the activity change, negative = inhibition in assay [1] was -0.935%; in assay [2], 0%; in assay [3] it was 5.7%; in assay [4], -2.3%; in assay [5] it was 5.59%.

In the case of `CN1CCN(C(=O)Cc2c[nH]c3ncc(-c4cccc(O)c4)cc23)CC1`, the activity change, negative = inhibition was -11.2% in assay [1]; -0.816% in assay [2]; -13.5% in assay [3]; -9.53% in assay [4]; -37.3% in assay [5].

For `CC(Cc1ccc(OCC(=O)O)cc1)NCC(O)c1cccc(Cl)c1` (stereo not given), the activity change, negative = inhibition in assay [1] is 4.51%; in assay [2] it was 13.1%; in assay [3] it was 5.05%; in assay [4] it was -0.72%; in assay [5] it was 12.3%.

Consider `OC1CCCCC1N1CCC(c2ccccc2)CC1` (stereo not given), for which the activity change, negative = inhibition in assay [1] is 3.64%; in assay [2], 14.6%; in assay [3], -3.56%; in assay [4], -0.738%; in assay [5] it was 7.73%.

For the compound `CCc1ccc(C2c3cccn3-c3ccccc3CN2C(=O)Nc2ccc(OC)cc2OC)cc1` (stereo not given), the activity change, negative = inhibition in assay [1] was 4.11%; in assay [2], 1.23%; in assay [3] it was -2.85%; in assay [4], -5.29%; in assay [5], 2.63%.

On to `CC(C)=CCOc1c2occc2cc2ccc(=O)oc12`, for which the activity change, negative = inhibition in assay [1] was -27.3%; in assay [2], 9.08%; in assay [3], 7.81%; in assay [4] it was -13.8%; in assay [5] it was -1.78%.

As for `C=CCN1C[C@H](C)N([C@H](c2ccc(C(=O)N(CC)CC)cc2)c2cccc(OC)c2)C[C@H]1C`, the activity change, negative = inhibition is -0.59% in assay [1]; -5.92% in assay [2]; 8.05% in assay [3]; -14.3% in assay [4]; -2.83% in assay [5].

For the compound `Cc1ccc(NC(=O)N2Cc3ccccc3-n3cccc3C2c2cccs2)cc1C` (stereo not given), the activity change, negative = inhibition in assay [1] worked out at 9.41%; in assay [2], 0%; in assay [3], 4.44%; in assay [4], 4.33%; in assay [5], 7.42%.

For the compound `CC(C)CCN1CCC2CC(=O)NCCC2C1` (stereo not given), the activity change, negative = inhibition in assay [1] is -2.48%; in assay [2] it was -6.77%; in assay [3] it was -0.196%; in assay [4], -8.81%; in assay [5] it was -2.83%.

`O=C(Nc1ccccc1)Nc1ccc2n(c1=O)C[C@H]1C[C@@H]2CN(C(=O)c2ccccc2)C1`: the activity change, negative = inhibition in assay [1] is -9.21%; in assay [2] it was -4.95%; in assay [3] it was -4.37%; in assay [4], -6.12%; in assay [5], -4.22%.

Consider `COC[C@H]1C[C@@H](NC2CCOCC2)[C@H](O)[C@@H]1O`, for which the activity change, negative = inhibition in assay [1] was -2.65%; in assay [2], -5.63%; in assay [3], -1.04%; in assay [4], -1.88%; in assay [5], 2.21%.
